In all, about 52,000 compounds went through this assay and about 1,700 (3.3%) were called active. Cut-off read from the data, not from the text of the source: active = survival mostly below about 52% (no sharp cut-off); inactive = mostly above about 56%. Some of the results follow.
Each compound was assayed on Wild type (assay: S. aureus survival, RN4220 and DeltatarO strains – OD600, teichoic acid synthesis inhibitors, primary screen (AID 463173)). Conditions: S. aureus RN4220 wild type/DeltatarO growth, OD600, 18 h, hits give low values, screened at 18.75 µg/mL (by protocol).

SMILES	survival
O=C(Nc1ccccc1C(F)(F)F)c1ccc2oc(=O)c(S(=O)(=O)c3ccc(F)cc3)cc2c1	inactive: 93%
COc1ccc(NC(=O)c2c(NC(=O)COc3ccccc3)sc3c2CCC(C)C3)cc1 (centres undefined)	inactive: 132%
O=C(NCCC1=CCCCC1)c1ccc2c(=O)n3nc(Nc4ccccc4)sc3nc2c1	inactive: 72%
Cc1cc(C)c2[nH]c(=O)c(CN(CC3CCCO3)C(=O)NC3CCCCC3)cc2c1 (centres undefined)	inactive: 112%
Cc1ccc(NC(=O)CSc2nnc3[nH]c(=O)cc(-c4ccccc4)n23)cc1Cl	inactive: 73%
COCCCNC(=O)c1cn(CCOC)c(=O)c2c1c1ccccc1n2C	inactive: 89%
Cc1ccccc1CNC(=O)CN1C(=O)CSc2ccc(S(=O)(=O)N(C)C)cc21	inactive: 68%
COc1ccc(-c2noc(CCC(=O)Nc3ccc(C(F)(F)F)cc3)n2)cc1	inactive: 84%
CC(=O)c1ccc(N2CCN(c3ncnc4c3nc3n4CCCC3)CC2)cc1	inactive: 83%
Cc1ccc(CSc2oc(-c3cccs3)nc2S(=O)(=O)c2ccccc2)cc1	inactive: 64%
COc1ccccc1N1CCN(c2ncc3c(n2)CCN(Cc2ccccc2F)C3)CC1	inactive: 67%
COc1ccc(CCNC(=O)Cc2c(C)c3c(cc(C)c4c(C)c(C)oc43)oc2=O)cc1	inactive: 87%
Cc1c(NC(=O)c2cc(-c3cccc(O)c3)on2)c(=O)n(-c2ccccc2)n1C	inactive: 85%
CCOC(=O)N1CCc2c(sc3c2c(=O)n(Cc2ccccc2)c(=O)n3Cc2ccccc2Cl)C1	inactive: 83%
Cc1ccc2ncc(C(=O)N3CCN(c4ccccc4F)CC3)c(=O)n2c1	inactive: 91%
COc1ccc(CCNC(=O)c2cnn(-c3ccc(F)cc3)c2C2CCN(C(=O)OC(C)(C)C)CC2)c(OC)c1	inactive: 76%
CCc1ccccc1NC(=O)N1CCc2c([nH]c3ccccc23)C1c1ccc(C)cc1 (centres undefined)	inactive: 86%
Cc1ccc(S(=O)(=O)N(CC(=O)NCCc2ccc(Cl)cc2)c2ccccc2C)cc1	inactive: 59%
CCc1ccc(OCC(=O)N(Cc2ccc(C)o2)C2CCS(=O)(=O)C2)cc1 (centres undefined)	inactive: 116%
Cc1coc2c(C)c3oc(=O)c(CC(=O)NCCc4ccc(Cl)cc4)c(C)c3cc12	inactive: 99%
Cc1ccnc(NC(=O)Cc2ccc(F)cc2)n1	inactive: 112%
Cc1cc(NC(=O)OC2CCCC2)ccc1NC(=O)OC1CCCCC1	inactive: 126%
Cc1c(NC(=O)c2cc(=O)c3ccccc3o2)c(=O)n(-c2ccccc2)n1C	inactive: 84%

SMILES	survival
O=C(COc1ccccc1F)Nc1nnc(SCc2cc(=O)c3ccccc3[nH]2)s1	inactive: 71%
Cc1cccc(CSc2nc(-c3cccs3)ccc2C#N)c1	inactive: 17%
COc1ccc(NC(=O)C2CCCN(S(=O)(=O)c3ccc4c(c3)oc(=O)n4C)C2)c(OC)c1 (centres undefined)	inactive: 125%
C=CCc1c(C)nc2nc(SCC(=O)Nc3ccc(C)c(C)c3)nn2c1C	inactive: 78%
COc1cccc(N2CCN(C(=O)c3cccn3-c3nnc(N4CCCC4)s3)CC2)c1	inactive: 90%
O=C1CCCC/C1=N\Nc1ccc(N2CCCCC2)cc1	inactive: 109%
COCCCNC(=O)c1ccc(-n2c(-c3ccccc3)cc3c2CCC(C)C3)cc1 (centres undefined)	inactive: 116%
CCCCOc1ccc(S(=O)(=O)Nc2ccc(-c3ccc(N4CCC(C)CC4)nn3)cc2)cc1	inactive: 75%
COc1ccc(S(=O)(=O)Nc2ccc(-c3cn4ccsc4n3)cc2)cc1C	inactive: 133%
COc1ccc(CCN2C(=O)c3oc4cc(C)cc(C)c4c(=O)c3C2c2ccccc2F)cc1OC (centres undefined)	inactive: 88%
COc1cccc(-c2nnc(SCC(=O)NC3CCCCC3)o2)c1	inactive: 73%
Cc1cccc(NC2CC(=O)N(c3cccc(Cl)c3)C2=O)c1 (centres undefined)	inactive: 107%
CCCn1c(=O)c2sccc2n2c(CCCC(=O)Nc3ccc(Oc4ccc(Cl)cc4)cc3)nnc12	inactive: 66%
Cc1ccc(NC(=O)c2ccc(CN3C(=O)CCn4nc(C)cc43)cc2)c(Cl)c1	inactive: 85%
CC(=O)c1ccc(NS(=O)(=O)c2ccc(-c3cc(C)no3)s2)cc1	inactive: 124%
CCOc1ccc(CCNC(=O)C2CCN(C(=O)c3cc4sccc4n3CC)CC2)cc1OCC	inactive: 103%
Cc1cccc(NC(=O)Cn2c(=O)ccc3cc(S(=O)(=O)N4CCCC4)ccc32)c1C	inactive: 79%
CC(=O)c1ccc(NC(=O)C2CCC(CNS(=O)(=O)c3cccs3)CC2)cc1 (centres undefined)	inactive: 60%
COc1cccc(Cc2nc3ccccc3nc2SCC(=O)NCc2ccc(C)cc2)c1	inactive: 88%
COc1ccc(CCNC(=O)c2ccc3c(c2)nc2n3CCC(C)C2)cc1OC (centres undefined)	inactive: 72%
CCOC(=O)c1noc2nc(C)n(Cc3cccc(C#N)c3)c(=O)c12	inactive: 76%
CCOc1ccc(NC(=O)N2CCN(Cc3cc(=O)n4nc(-c5ccc(OC)cc5)sc4n3)CC2)cc1	inactive: 72%
O=C(NCc1ccc(F)cc1)c1ccc2c(c1)nnn2C1CCCC1	inactive: 159%

SMILES	survival
COc1ccc(N2C(=O)CS(=O)(=O)C23C(=O)N(Cc2ccc(C)cc2)c2ccccc23)cc1Cl (centres undefined)	inactive: 69%
CCOC(=O)c1[nH]c(C)c(CCC(=O)NCc2ccc(OC)cc2)c1C	inactive: 71%
Cc1c(NC(=O)c2cc(-c3ccc(Cl)cc3)on2)c(=O)n(-c2ccccc2)n1C	inactive: 135%
O=C(OCC(=O)N1CCc2ccccc21)c1ccccc1	inactive: 98%
Cc1ccccc1-c1nnc(SCC(=O)N(C)C2CCCCC2)o1	inactive: 65%
CCNC(=O)c1ccc(CSc2nc3ccncc3n2Cc2ccc(F)cc2)cc1	inactive: 82%
O=C(CN1C(=O)CSC1=O)Nc1cccc(Cl)c1	inactive: 107%
CCn1c(C(=O)NCc2cc(Br)ccc2OC)cc2oc3ccccc3c21	inactive: 78%
CCN(C(=O)Cn1cnc2onc(-c3ccc(F)cc3)c2c1=O)c1cc(C)ccc1C	inactive: 73%
COc1cccc(C(=O)NC(=S)NCc2ccco2)c1	inactive: 108%
Cc1ccc(NC(=O)N2CCN(c3cc(-c4noc(C)n4)ccc3C)CC2)c(C)c1	inactive: 72%
Cc1cccc(CCNC(=O)CN(c2ccc(C(C)C)cc2)S(=O)(=O)c2c(C)nn(C)c2C)c1	inactive: 87%
CC1=CC(C)(C)N(C(=O)Cc2ccccc2)c2ccccc21	inactive: 126%
COc1ccc(CNc2nc3ccccc3c3nc(-c4ccccc4)nn23)cc1	inactive: 33%
Cc1ccc(OCC(=O)Nc2nc(-c3ccc(Br)cc3)ns2)cc1C	inactive: 119%
CC(=O)c1ccc(NC(=O)c2nc(-c3ccc(C)cc3)n3c2CCCCC3)cc1	inactive: 63%
Cc1ccccc1OCC(=O)Nc1ccc2nc(SCc3ccccc3)sc2c1	inactive: 91%
O=C(O)c1ccc(NC(=S)N2CCCCC2)cc1	inactive: 107%
COc1ccc(OCC(=O)NC2CC(=O)N(c3ccc4c(c3)OCCO4)C2)cc1 (centres undefined)	inactive: 80%
COc1ccc(-c2ccc(NS(=O)(=O)c3cccc(C)c3)cc2)nn1	inactive: 70%
COC(=O)C(C)n1cnc2sc3c(c2c1=O)CCCC3 (centres undefined)	inactive: 102%
COc1ccc(CCNC(=O)C2CCN(c3nc4ccccc4nc3C(F)(F)F)CC2)c(OC)c1	inactive: 65%
Cc1ccc(C)c(CN2C(=O)C3(c4ccccc42)N(c2ccc(Cl)cc2)C(=O)CS3(=O)=O)c1 (centres undefined)	inactive: 71%

SMILES	survival
CCc1ccc(NS(=O)(=O)c2c(C)nc3sc(CC)nn3c2=O)cc1	inactive: 70%
COc1ccc(CCNc2nc3c(-c4cccc(F)c4)nnn3c3ccccc23)cc1OC	inactive: 95%
Cc1cccc(NC(=O)CSc2nc(-c3ccccc3Cl)nc3c2Cc2c(CO)cnc(C)c2O3)c1C	inactive: 109%
CC1CCN(c2nc3c(S(=O)(=O)c4ccc(Cl)cc4)nnn3c3ccsc23)CC1	inactive: 113%
COc1ccc(-c2cc(C)no2)cc1S(=O)(=O)N1CCN(c2ccccc2F)CC1	inactive: 135%
CC(=O)N1c2ccccc2CC1C(=O)NCc1cccc(Cl)c1 (centres undefined)	inactive: 72%
CCOc1cccc(C2CC(=O)Nc3cc4c(cc32)OCCO4)c1 (centres undefined)	inactive: 77%
CN1C(=O)C(Cc2ccccc2)NC1=S (centres undefined)	inactive: 112%
CCc1ccccc1NC(=O)c1ccc(CN2C(=O)CCn3nc(C)cc32)cc1	inactive: 92%
COCCNC(=O)C1CCN(c2nc3ccccc3nc2C(F)(F)F)CC1	inactive: 79%
Cc1ccccc1NC(=O)CSc1cn(CC(=O)N(C(C)C)C(C)C)c2ccccc12	inactive: 82%
COc1cc2c(cc1OC)C(COc1ccc3c(C)cc(=O)oc3c1)N(C(=O)c1ccccc1F)CC2 (centres undefined)	inactive: 64%
COc1cc2c(cc1OC)n(Cc1ccc([N+](=O)[O-])cc1)c(=O)n1nc(-c3ccccc3)nc21	inactive: 135%
O=C(NCc1ccccc1Cl)C1CCCN(C(=O)c2cnn(-c3ccc(F)cc3)c2-n2cccc2)C1 (centres undefined)	inactive: 93%
CCOC(=O)c1c(C)oc2ccc(OCC(N)=O)cc12	inactive: 108%
Cc1cccc(N2CCN(C(=O)c3cnc4c(C)cccn4c3=O)CC2C)c1 (centres undefined)	active: 0%
O=C(COc1cccc(Cl)c1)N1CCC(c2nc3ccccc3o2)CC1	inactive: 72%
CCOc1ccc(NC(=O)CSc2nc3c([nH]c4ccccc43)c(=O)n2-c2cc(C)cc(C)c2)cc1	inactive: 72%
COC(=O)c1cc2c(ccn2-c2ccc(F)cc2)n1C(C)C	inactive: 107%
CC(C)c1ccc(NC(=O)N2CCN(c3ccc(Cl)c(Cl)c3)CC2)cc1	inactive: 101%

Source: PubChem BioAssay AID463173 (ICCB-Longwood Screening Facility, Harvard Medical School, 2010)
